# Assay results taken from the supplement of paper PMC3334620.
# Whole data set: some 33,000 sequences, median “E-score (-0.5 to 0.5)” near -0.054, cut for the highest 2% near 0.35. The list shows a part of the results.
# Biological target: T1, Stb5 (UniProt P38699)
# T1 sequence: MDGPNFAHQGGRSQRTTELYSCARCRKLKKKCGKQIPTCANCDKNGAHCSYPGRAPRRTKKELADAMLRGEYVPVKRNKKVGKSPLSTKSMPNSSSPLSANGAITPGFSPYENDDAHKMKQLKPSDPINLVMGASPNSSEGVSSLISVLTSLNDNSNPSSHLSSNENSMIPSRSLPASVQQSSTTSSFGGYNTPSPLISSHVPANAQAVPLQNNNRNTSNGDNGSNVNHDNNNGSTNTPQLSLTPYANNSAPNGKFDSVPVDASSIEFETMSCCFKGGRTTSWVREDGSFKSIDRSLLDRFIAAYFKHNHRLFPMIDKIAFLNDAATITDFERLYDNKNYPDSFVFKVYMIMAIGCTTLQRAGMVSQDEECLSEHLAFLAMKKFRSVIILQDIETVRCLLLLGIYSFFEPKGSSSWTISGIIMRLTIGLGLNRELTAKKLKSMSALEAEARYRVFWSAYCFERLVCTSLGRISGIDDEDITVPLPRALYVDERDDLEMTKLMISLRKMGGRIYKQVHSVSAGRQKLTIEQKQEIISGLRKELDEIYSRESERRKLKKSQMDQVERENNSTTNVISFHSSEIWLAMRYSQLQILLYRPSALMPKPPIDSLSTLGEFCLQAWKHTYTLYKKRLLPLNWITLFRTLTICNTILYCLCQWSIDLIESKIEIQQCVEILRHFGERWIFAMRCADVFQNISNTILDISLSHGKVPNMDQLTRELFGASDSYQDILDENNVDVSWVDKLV
# Test: PBM E-score (8-mer binding enrichment) (E-score (-0.5 to 0.5)); higher = stronger / more preferred TF binding; most listed sequences are background and not binding sites
# Conditions: protein concentration: 200 nM; construct: GST-full length
# How it was run: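 Yeast transcription factors, full-length or as DNA-binding domains, were expressed with a GST tag using PURExpress in vitro transcription/translation. At about 100-200 nM they were applied to universal all-10-mer Agilent arrays, double-stranded by primer extension on fresh or once-stripped slides. Fluorescent anti-GST detected bound protein, and masliner normalised the scans. E-scores for ungapped eight-base words, pooled with reverse complements, came from the Universal PBM Analysis Suite.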
row,Sequence,PBM E-score
1,CAAGAATG,-0.139
2,ACATACAC,-0.0653
3,AGGTATCC,-0.211
4,AGGGACTA,-0.0339
5,ATGGTGAC,-0.192
6,AATTCCCG,0.363
7,AATGATGG,-0.169
8,CAGAACTC,-0.175
9,AACGCCGC,0.448
10,GTAGTAAC,0.12
11,CCCTATAG,-0.104
12,GATCCAAC,0.102
13,CGTTTACC,0.0535
14,CTTACAAC,-0.117
15,CTGAGCAG,-0.209
16,GCGACGCC,0.0434
17,CGGGTGAC,0.142
18,CAGTAGAA,-0.325
19,AACTTCCT,-0.172
20,CTATTCTA,1e-05
21,GCCGTCAC,0.224
22,AGAATATG,-0.153

row,Sequence,PBM E-score
1,CACAAGGA,-0.31
2,ACTGGGGG,-0.28
3,ATAAAGCC,0.359
4,GTTCGAGA,-0.072
5,AATTGCGG,0.139
6,AATAGCCT,-0.182
7,ACAGCATG,0.0379
8,GCTTTAGA,-0.0225
9,AGGATATA,-0.0284
10,CCAGTGTA,-0.188
11,CACACATC,-0.15
12,CCATCTGA,-0.198
13,CAAGCAAA,-0.17
14,TAAGCTTA,-0.105
15,TTCAAAAA,-0.155
16,TGGAGACA,-0.254
17,GTCGGACA,0.385
18,TCAGTTAA,-0.0196
19,ACTGCATG,-0.302
20,ACCTCGCC,-0.0314
21,AAAACTGG,0.0365
22,TATACATA,-0.127

row,Sequence,PBM E-score
1,CGAAGCAC,-0.0541
2,ACAGCACT,-0.196
3,CAATGTTA,-0.219
4,CGGGACAC,0.195
5,GCTTTCTA,0.0335
6,CGTCGTTA,0.0819
7,AACTAATT,-0.029
8,CACACAAG,-0.231
9,GGCGACCA,-0.0929
10,GGCTGTTA,0.0531
11,GTAGAACA,-0.0782
12,CGTCGAGC,0.0731
13,TAACCCAA,-0.106
14,TCATGGCA,-0.0568
15,AGTAAGGA,-0.2
16,CCCAATTC,-0.123
17,GGCAGGGA,-0.241
18,CAATCGCG,0.00418
19,ACGCGACC,-0.121
20,ACGCCTGA,-0.11
21,GTGACTTA,-0.139
22,CATTTGGC,-0.247

row,Sequence,PBM E-score
1,TATGCGCA,-0.115
2,AAGGTAAG,-0.115
3,ATGACTTC,-0.221
4,GACGGCAA,0.285
5,CGCAAGCC,-0.00333
6,ACTTTCCT,-0.128
7,AGTGCGTG,-0.1
8,GCATCGCC,-0.00466
9,GACCGAAC,0.145
10,ATGAGACA,-0.132
11,GGCAAAGA,-0.0708
12,GAGTGGCC,-0.0356
13,AATGGTTC,0.00524
14,ACACGTCG,0.0556
15,AACCGAGT,-0.0243
16,CAAAGCTG,-0.12
17,AAGGTTAT,0.0152
18,CCTGCGTA,-0.0568
19,AACTGTTA,-0.0903
20,AGTAGTAC,0.00883
